# Data taken from the supplement of paper PMC8728848.
# The other results are listed elsewhere or left out.
# Assays:
# Test in all cases: glycan array binding signal (z-score within array); higher = stronger binding
# Conditions in all cases: glycan notation: IUPAC condensed, linker removed
# [1] = target: Neu5Ac(a2-6)Gal(b1-4)GlcNAc(b1-2)Man(a1-6)[Gal(b1-4)GlcNAc(b1-2)Man(a1-3)]Man(b1-4)GlcNAc(b1-4)GlcNAc
# Outline: (§1)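 From the Consortium for Functional Glycomics database, 3228 arrays were curated, keeping only those whose protein sequence was available. Binding is given as a within-array Z-score averaged across arrays sharing a protein sequence and across linkers. Negative Z-scores can be read as non-binding.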
# [2] = target: Neu5Ac(a2-6)Gal(b1-4)GlcNAc(b1-2)Man(a1-6)[GlcNAc(b1-2)Man(a1-3)]Man(b1-4)GlcNAc(b1-4)GlcNAc
# Outline: as §1
# [3] = target: Neu5Ac(a2-6)Gal(b1-4)GlcNAc(b1-2)Man(a1-6)[Man(a1-3)]Man(b1-4)GlcNAc(b1-4)GlcNAc
# Outline: as §1
# [4] = target: Neu5Ac(a2-6)Gal(b1-4)GlcNAc(b1-3)Gal(b1-3)GlcNAc
# Outline: as §1
# [5] = target: Neu5Ac(a2-6)Gal(b1-4)GlcNAc(b1-3)Gal(b1-4)GlcNAc
# Outline: as §1
# [6] = target: Neu5Ac(a2-6)Gal(b1-4)GlcNAc(b1-3)Gal(b1-4)GlcNAc(b1-3)Gal(b1-4)GlcNAc
# Outline: as §1
# [7] = target: Neu5Ac(a2-6)Gal(b1-4)GlcNAc(b1-3)Gal(b1-4)[Fuc(a1-3)]GlcNAc(b1-3)Gal(b1-4)[Fuc(a1-3)]GlcNAc
# Outline: as §1
# [8] = target: Neu5Ac(a2-6)Gal(b1-4)GlcNAc(b1-3)GalNAc
# Outline: as §1
# [9] = target: Neu5Ac(a2-6)Gal(b1-4)GlcNAc6S
# Outline: as §1
# Neu5Ac(a2-6)GalNAc = target: Neu5Ac(a2-6)GalNAc
# Outline: as §1
# [10] = target: Neu5Ac(a2-6)GalNAc(b1-4)GlcNAc
# Outline: as §1
# [11] = target: Neu5Ac(a2-6)GlcNAc(b1-4)GlcNAc
# Outline: as §1
# [12] = target: Neu5Ac(a2-6)GlcNAc(b1-4)GlcNAc(b1-4)GlcNAc
# Outline: as §1
# Neu5Ac(a2-8)Neu5Ac = target: Neu5Ac(a2-8)Neu5Ac
# Outline: as §1
# [13] = target: Neu5Ac(a2-8)Neu5Ac(a2-3)Gal(b1-3)GalNAc(b1-4)[Neu5Ac(a2-8)Neu5Ac(a2-3)]Gal(b1-4)Glc
# Outline: as §1
# [14] = target: Neu5Ac(a2-8)Neu5Ac(a2-3)Gal(b1-4)Glc
# Outline: as §1
# [15] = target: Neu5Ac(a2-8)Neu5Ac(a2-3)[Gal(b1-3)GalNAc(b1-4)]Gal(b1-4)Glc
# Outline: as §1
# [16] = target: Neu5Ac(a2-8)Neu5Ac(a2-3)[GalNAc(b1-4)]Gal(b1-4)Glc
# Outline: as §1
# [17] = target: Neu5Ac(a2-8)Neu5Ac(a2-8)Neu5Ac
# Outline: as §1
# [18] = target: Neu5Ac(a2-8)Neu5Ac(a2-8)Neu5Ac(a2-3)Gal(b1-4)Glc
# Outline: as §1
# [19] = target: Neu5Ac(a2-8)Neu5Ac(a2-8)Neu5Ac(a2-3)[GalNAc(b1-4)]Gal(b1-4)Glc
# Outline: as §1
# [20] = target: Neu5Ac(a2-8)Neu5Ac(a2-8)Neu5Ac(a2-8)Neu5Ac(a2-3)[GalNAc(b1-4)]Gal(b1-4)Glc
# Outline: as §1
# [21] = target: Neu5Ac(b2-6)Gal(b1-4)GlcNAc
# Outline: as §1
# Neu5Ac(b2-6)GalNAc = target: Neu5Ac(b2-6)GalNAc
# Outline: as §1
# [22] = target: Neu5Ac9Ac(a2-3)Gal(b1-3)GlcNAc
# Outline: as §1
# [23] = target: Neu5Ac9Ac(a2-3)Gal(b1-4)GlcNAc
# Outline: as §1
# [24] = target: Neu5Ac9Ac(a2-6)Gal(b1-4)GlcNAc
# Outline: as §1
# [25] = target: Neu5Gc(a2-3)Gal(b1-3)GlcNAc
# Outline: as §1
# [26] = target: Neu5Gc(a2-3)Gal(b1-3)[Fuc(a1-4)]GlcNAc
# Outline: as §1
# Neu5Gc(a2-3)Gal(b1-4)Glc = target: Neu5Gc(a2-3)Gal(b1-4)Glc
# Outline: as §1
# [27] = target: Neu5Gc(a2-3)Gal(b1-4)GlcNAc
# Outline: as §1
# [28] = target: Neu5Gc(a2-3)Gal(b1-4)[Fuc(a1-3)]GlcNAc
# Outline: as §1
# [29] = target: Neu5Gc(a2-6)Gal(b1-4)GlcNAc
# Outline: as §1
# Neu5Gc(a2-6)GalNAc = target: Neu5Gc(a2-6)GalNAc
# Outline: as §1
# [30] = target: Neu5Gc(b2-6)Gal(b1-4)GlcNAc
# Outline: as §1
binder,measurement,setting,value
"CV-2L (Chromobacterium violaceum), Q7NX84 (protein) MAQQGVFTLPARINFGVTVLVNSAATQHVEIFVDNEPRAAFSGVGTGDNNLGTKVINSGSGNVRVQITANGRQSDLVSSQLVLANKLNLAVVGSEDGTDMDYNDSIVILNWPLG",glycan array binding signal (z-score),[1],-0.334
same,glycan array binding signal (z-score),[2],-0.337
same,glycan array binding signal (z-score),[3],-0.017
same,glycan array binding signal (z-score),[4],-0.33
same,glycan array binding signal (z-score),[5],-0.346
same,glycan array binding signal (z-score),[6],-0.341
same,glycan array binding signal (z-score),[7],-0.231
same,glycan array binding signal (z-score),[8],-0.326
same,glycan array binding signal (z-score),[9],-0.351
same,glycan array binding signal (z-score),Neu5Ac(a2-6)GalNAc,-0.334
same,glycan array binding signal (z-score),[10],-0.339
same,glycan array binding signal (z-score),[11],-0.349
same,glycan array binding signal (z-score),[12],-0.35
same,glycan array binding signal (z-score),Neu5Ac(a2-8)Neu5Ac,-0.328
same,glycan array binding signal (z-score),[13],-0.354
same,glycan array binding signal (z-score),[14],-0.351
same,glycan array binding signal (z-score),[15],-0.33
same,glycan array binding signal (z-score),[16],-0.354
same,glycan array binding signal (z-score),[17],-0.349
same,glycan array binding signal (z-score),[18],-0.332
same,glycan array binding signal (z-score),[19],-0.327
same,glycan array binding signal (z-score),[20],-0.348
same,glycan array binding signal (z-score),[21],-0.331
same,glycan array binding signal (z-score),Neu5Ac(b2-6)GalNAc,-0.349
same,glycan array binding signal (z-score),[22],-0.322
same,glycan array binding signal (z-score),[23],-0.359
same,glycan array binding signal (z-score),[24],-0.331
same,glycan array binding signal (z-score),[25],-0.344
same,glycan array binding signal (z-score),[26],0.624
same,glycan array binding signal (z-score),Neu5Gc(a2-3)Gal(b1-4)Glc,-0.346
same,glycan array binding signal (z-score),[27],-0.332
same,glycan array binding signal (z-score),[28],-0.317
same,glycan array binding signal (z-score),[29],-0.326
same,glycan array binding signal (z-score),Neu5Gc(a2-6)GalNAc,-0.343
same,glycan array binding signal (z-score),[30],-0.328
